One molecule from PMC4948766, “The Eukaryotic-Specific ISD11 Is a Complex-Orphan Protein with Ability to Bind the Prokaryotic IscS” (PLoS ONE, 2016) can be followed below.

The target of data set [1] is T1, His10-tagged IscS, separately purified (E. coli, UniProt P0A6B7 1-404).
T1 construct: cysteine desulfurase IscS, E. coli; The methods describe IscS with an N-terminal His-tag that is removed by TEV; also called IscS-His10; IscS-His
T1 sequence (looked up): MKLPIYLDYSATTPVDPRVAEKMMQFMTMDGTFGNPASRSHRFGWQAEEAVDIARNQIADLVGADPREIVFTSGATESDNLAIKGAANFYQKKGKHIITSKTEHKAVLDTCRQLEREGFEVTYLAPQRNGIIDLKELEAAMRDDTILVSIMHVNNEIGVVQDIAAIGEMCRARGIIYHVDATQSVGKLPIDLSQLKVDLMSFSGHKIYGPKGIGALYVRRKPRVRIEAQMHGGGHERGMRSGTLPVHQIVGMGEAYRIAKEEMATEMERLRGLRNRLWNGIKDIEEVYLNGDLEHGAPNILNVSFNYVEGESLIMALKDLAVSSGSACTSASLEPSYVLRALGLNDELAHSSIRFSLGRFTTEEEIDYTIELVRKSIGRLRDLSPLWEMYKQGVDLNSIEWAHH
Put plainly: SEC; analytical SEC at 280 nm of separately purified IscS-His10 (30 μM) and ISD11 (150 μM) mixed in a ratio of 1 to 5, compared with isolated IscS. Conditions: both partners purified.

Data set [2] concerns the molecule itself. Briefly: SEC; freshly purified samples from SEC, concentration of the purified fraction less than 0.5 mg/ml.

B1: human ISD11 (expressed as GST-ISD11 from pZM96, GST removed with thrombin) (natural protein)
chain: not shown
notes: five additional amino acids left at the N-terminus after thrombin cleavage; ISD11 (LYRM4), human, full length; In the co-purification with endogenous IscS the GST tag was still on during the glutathione step and was cleaved before the SEC step in which IscS co-eluted; also called [U-15N]-ISD11; ISD11 (purified by GST-tag); source: E. coli Rosetta2 (DE3)pLysS, purified (Glutathione Sepharose 4B, …)
With B1, the binding result in data set [1] is “binds”. Further, the “stoichiometry N” value in data set [2] turned out to be 2.
